From PubChem BioAssay AID624417 (National Center for Advancing Translational Sciences (NCATS), 2012)
Screen size: about 410,000 compounds; about 6,400 (1.6%) were called active. The inconclusive results got no clear call from the source; some entries with a clear call stand among them for comparison. Calls come from the whole dose curve; as a rule, active = well fitted inhibition curve with a large enough effect; inconclusive = small, poorly fitted or top-dose-only effect; inactive = no such curve, though single readings can be large or run the other way. Potencies of inconclusive entries are left out as doubtful fits.

Each molecule was assayed against Glucagon-like peptide 1 receptor (Homo sapiens) (UniProt P43220) (assay: qHTS of GLP-1 Receptor Inverse Agonists (Inhibition Mode)). Details: HEK293 GLP-1R CRE-luciferase, luminescence, 24 h, GLP-1R form is constitutively active; activity change, negative = inhibition: at 38.3 µM (top of the series) unless noted.
In short: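 Luminescence readout: a drop in cAMP-driven luciferase signal flags inverse agonism at a constitutively active GLP-1R stably expressed in HEK293. Compound exposure lasted 24 hr at 37 deg C, 5% CO2.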
% is set by controls: 0 for no effect and ±100 for the full control effect; potency is the fitted concentration of half-maximal effect; tags give direction and shape of the fitted curve.
Note: nearly all actives have a fitted effect of over 55% in size.

Chain of UniProt P43220 (P43220 whole entry, looked up): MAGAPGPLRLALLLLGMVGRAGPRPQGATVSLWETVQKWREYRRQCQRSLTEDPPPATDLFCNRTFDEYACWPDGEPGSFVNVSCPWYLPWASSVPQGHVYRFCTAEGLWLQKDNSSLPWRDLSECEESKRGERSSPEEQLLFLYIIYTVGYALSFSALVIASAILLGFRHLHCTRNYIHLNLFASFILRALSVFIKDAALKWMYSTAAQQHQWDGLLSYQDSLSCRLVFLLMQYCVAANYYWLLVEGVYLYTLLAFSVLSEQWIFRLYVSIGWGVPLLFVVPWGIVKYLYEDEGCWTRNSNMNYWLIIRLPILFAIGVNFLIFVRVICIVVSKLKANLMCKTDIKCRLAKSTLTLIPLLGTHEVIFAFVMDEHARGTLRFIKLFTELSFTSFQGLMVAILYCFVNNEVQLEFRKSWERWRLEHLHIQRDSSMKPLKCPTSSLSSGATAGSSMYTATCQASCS

| SMILES | Potency | activity change, negative = inhibition |
| --- | --- | --- |
| CC1CCc2nc(NC(=O)Nc3ccc4c(c3)OCO4)sc2C1 (stereo unspecified) | inconclusive [inhibitor, partial curve] | – |
| Cc1ccc(S(=O)(=O)N(CC(=O)Nc2cccnc2)c2cccc([N+](=O)[O-])c2)cc1 | inconclusive [inhibitor, partial curve] | – |
| Cc1cccc(C)c1N1C(=O)[C@@H]2C(c3ccccc3Cl)=NO[C@@H]2C1=O | – | inactive: 12.4% |
| COCCN(C(=S)Nc1ccc(OC)cc1)C(C)c1cccs1 (stereo unspecified) | inconclusive [inhibitor, single point] | – |
| CCN(CC)c1ccc(NC(=O)c2cccn2-c2nnc(N3CCCCC3)s2)c(C)c1 | inconclusive [inhibitor, single point] | – |
| Cc1nc(C(=O)Nc2ccc(Cl)cc2)sc1C1(C)CC(c2ccccc2)=NO1 (stereo unspecified) | inconclusive [inhibitor, partial curve, poor fit] | – |
| CC(C)N1CC(O)=C(c2nc3ccccc3[nH]2)C1=N | – | inactive: 1.36% |
| OCC1(Cc2ccccc2C(F)(F)F)CCN(Cc2cccc3cnccc23)CC1 | inconclusive [inhibitor, partial curve, poor fit] | – |
| O=C(Nc1ccncc1)Nc1ccc(Br)cc1Cl | inconclusive [inhibitor, single point] | – |
| C=C1CSc2nc3ccccc3c(=O)n21 | – | inactive: 31% |
| CC1(c2ccc3ccccc3c2)NC(=O)N(CC(=O)N2CCN(Cc3ccc(C#N)cc3)CC2)C1=O (stereo unspecified) | inconclusive [inhibitor, single point] | – |
| Cc1ccc(S(=O)(=O)N2CCN(C(=O)c3cc(-c4ccc(Br)cc4)n[nH]3)CC2)c(C)c1 | – | inactive: 2.54% |
| CCCCc1ccc(NC(=S)Nc2ccc(Cl)c(S(=O)(=O)N(C)C)c2)cc1 | inconclusive [inhibitor, partial curve, poor fit] | – |
| CCN(C(=O)c1cnc(NC(C)C)cc1C(F)(F)F)c1ccc(Cl)cc1 | inconclusive [inhibitor, single point] | – |
| CN(c1ccc(OCc2ccc([N+](=O)[O-])cc2)cc1)S(=O)(=O)c1ccccc1 | inconclusive [inhibitor, partial curve, poor fit] | – |
| CCCC(=O)NC1=C(Cl)C(=O)c2ccccc2C1=O | inconclusive [inhibitor, single point] | – |
| Cc1ccc(-n2cc(-c3ccccc3)c3c(N4CCCCC4)ncnc32)cc1 | – | inactive: -0.771% |
| Cc1ccc(C(=O)OCC(=O)c2ccccc2)cc1 | inconclusive [inhibitor, partial curve, poor fit] | – |
| Cc1cccc(C(O)c2ncc(-c3ccc(C(F)(F)F)cc3)[nH]2)c1C (stereo unspecified) | inconclusive [inhibitor, partial curve, poor fit] | – |
| CCCCn1c(C2CCCCC2)nc2cc3[nH]c(=O)c(C(C)C)nc3cc21 | inconclusive [inhibitor, partial curve, poor fit] | – |
| C=C1CC2C(CCC3(C)C2CCC3(O)C(C)=O)C2(C)CCC(=O)C=C12 (stereo unspecified) | inconclusive [inhibitor, partial curve] | – |

| SMILES | Potency | activity change, negative = inhibition |
| --- | --- | --- |
| O=C(CSc1nnc2n1CCCN2)c1ccc(Cl)cc1 | – | inactive: 0% |
| Cc1cccc(C(=O)Nc2cccc(NC(=O)c3ccccc3)c2)c1 | inconclusive [inhibitor, partial curve, poor fit] | – |
| O=C(CCC(=O)N1CCCCC1)Nc1ccc(Cl)c(Cl)c1 | inconclusive [inhibitor, partial curve] | – |
| C=CCOC(=O)C1=C[C@@H](c2csc3ccccc23)C[C@@H](OCc2ccc(CO)cc2)O1 | inconclusive [inhibitor, single point] | – |
| O=C(/C=C/c1ccc(Cl)cc1)N(c1ccccn1)C1CCCCC1 | inconclusive [inhibitor, partial curve, poor fit] | – |
| Cc1cccc(NC(=S)c2nc3ccccc3s2)c1 | – | inactive: -4.72% |
| CCOc1ccc2[nH]c(=O)c(CN(CCCN3CCOCC3)Cc3nnnn3Cc3ccc(OC)cc3)cc2c1 | inconclusive [inhibitor, single point] | – |
| CN1CCN(C(=O)CSc2nc3ccc(NC(=O)c4ccccc4F)cc3s2)CC1 | inconclusive [inhibitor, partial curve, poor fit] | – |
| CCCOc1ccc(NC(=O)CC2C(=O)N(c3ccccc3)C(=O)N2Cc2ccco2)cc1 (stereo unspecified) | – | inactive: -8.02% |
| COCC[N+]1(C)CCCCC1 | – | inactive: 11.1% |
| COc1cccc(CNc2cnc3ccccc3c2)c1O | inconclusive [inhibitor, single point] | – |
| CCNS(=O)(=O)c1ccc(NC(=O)CSc2nc(-c3ccco3)cc(C(F)(F)F)n2)cc1 | inconclusive [inhibitor, partial curve] | – |
| Cc1cc(/C=N/NC(=O)c2ccccc2F)c(C)n1-c1ccccc1 | inconclusive [inhibitor, single point] | – |
| Cc1nc(Nc2cnc(/C=C/c3cc(C(=O)Nc4cccc(C(F)(F)F)c4)ccc3C)cn2)cc(N2CCNCC2)n1 | inconclusive [inhibitor, single point] | – |
| Cc1ccc(S(=O)(=O)N2CCCCC2)cc1NC(=O)c1ccccc1Cl | inconclusive [inhibitor, single point] | – |
| COc1ccccc1CNC(=O)c1c[nH]c2ccc(S(=O)(=O)Nc3cc(C)cc(C)c3)cc2c1=O | inconclusive [inhibitor, partial curve, poor fit] | – |
| CC1Cc2ccccc2N1C(=S)NC(=O)c1ccc(Cl)cc1Cl (stereo unspecified) | active: 10 µM | – |
| CCN(C(=O)CSc1cc(C)c2cccc(C)c2n1)C1CCS(=O)(=O)C1 (stereo unspecified) | inconclusive [inhibitor, full curve, poor fit] | – |
| CCCCOc1c(C(=O)Nc2ccccc2)nnn1-c1ccccc1 | inconclusive [inhibitor, partial curve, poor fit] | – |
| CCOCCCNc1nc(C(F)(F)F)nc2c1nnn2Cc1ccccc1Cl | inconclusive [inhibitor, partial curve, poor fit] | – |
